# Data reported in the supplement of paper PMC8728848.
# The list shows a part of the results.
# B1: GS7807H-bfa-490-18-490 (Bacteroides fragilis) (protein)
# chain: GNLEEMNIDPDNATQTHPKLLLTQICMNAFKRGTDGMYATKKVIQADGESADQYYKWTRGSFGYYDNLRNVQKMGEEAERVNAPVYTALTKFFRAYYFYELTLRFGDIPYSQALKGEKEEIYTPEYDAQEDVFAGILQELREADEILANDASVIDGDIIYNGNSTQWRKLINSFRLKVLMTLSNHTTVGNINIASEFKNIATNSPLMNSLADNGQLVYLDQQGNRYPQFNAQWSGYYMDDTFIQRMRERRDPRLFIFSAQTNKGKTEGKPIDDFSSYEGGDPAAPYSDAIIKVSEGTISPINDRFRTDPIVEPTMLMGYAELQQILAEAVVRGWISGNAQTYYEKGIRASFSFYETHAKDYAGYLNENAVAQYLKEPLVDFTQASGTEEQIERIIMQKYLVTFYQGNWDSFYEQLRTGYPDFRRPAGTEIPKRWMYPQGEYDNNGTNVETAITRQFGAGNDKINQATWWQKKS
# What was measured:
# Experiment in all cases: glycan array binding signal (z-score within array); higher = stronger binding
# Details in all cases: glycan notation: IUPAC condensed, linker removed
# [1] = target: GlcNAc(b1-3)Gal(b1-4)GlcNAc(b1-3)Gal(b1-4)GlcNAc(b1-3)GalNAc
# How it was run: (§1)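 The binding signal is a Z-score computed within each array. Data were drawn from 3228 arrays in the Consortium for Functional Glycomics database, restricted to those with a known protein sequence. Scores were averaged over arrays of the same protein sequence at different concentrations or buffers, and over linkers, and negative values can be taken as non-binding.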
# [2] = target: GlcNAc(b1-3)Gal(b1-4)GlcNAc(b1-3)GalNAc
# How it was run: as §1
# [3] = target: GlcNAc(b1-3)Gal(b1-4)GlcNAc(b1-3)[GlcNAc(b1-3)Gal(b1-4)GlcNAc(b1-3)]GalNAc
# How it was run: as §1
# [4] = target: GlcNAc(b1-3)Gal(b1-4)GlcNAc(b1-6)[Gal(b1-3)]GalNAc
# How it was run: as §1
# [5] = target: GlcNAc(b1-3)Gal(b1-4)GlcNAc(b1-6)[GlcNAc(b1-3)Gal(b1-3)]GalNAc
# How it was run: as §1
# [6] = target: GlcNAc(b1-3)Gal(b1-4)GlcNAc(b1-6)[GlcNAc(b1-3)]Gal(b1-4)GlcNAc
# How it was run: as §1
# GlcNAc(b1-3)GalNAc = target: GlcNAc(b1-3)GalNAc
# How it was run: as §1
# GlcNAc(b1-3)Man = target: GlcNAc(b1-3)Man
# How it was run: as §1
# [7] = target: GlcNAc(b1-3)[GlcNAc(b1-4)][GlcNAc(b1-6)]GlcNAc
# How it was run: as §1
# [8] = target: GlcNAc(b1-3)[GlcNAc(b1-6)]Gal(b1-4)GlcNAc
# How it was run: as §1
# [9] = target: GlcNAc(b1-3)[GlcNAc(b1-6)]GalNAc
# How it was run: as §1
# [10] = target: GlcNAc(b1-4)Gal(b1-4)GlcNAc
# How it was run: as §1
# GlcNAc(b1-4)GlcNAc = target: GlcNAc(b1-4)GlcNAc
# How it was run: as §1
# [11] = target: GlcNAc(b1-4)GlcNAc(b1-4)GlcNAc
# How it was run: as §1
# [12] = target: GlcNAc(b1-4)GlcNAc(b1-4)GlcNAc(b1-4)GlcNAc(b1-4)GlcNAc
# How it was run: as §1
# [13] = target: GlcNAc(b1-4)GlcNAc(b1-4)GlcNAc(b1-4)GlcNAc(b1-4)GlcNAc(b1-4)GlcNAc
# How it was run: as §1
# [14] = target: GlcNAc(b1-4)[GlcNAc(b1-6)]GalNAc
# How it was run: as §1
# [15] = target: GlcNAc(b1-6)Gal(b1-4)GlcNAc
# How it was run: as §1
# GlcNAc(b1-6)GalNAc = target: GlcNAc(b1-6)GalNAc
# How it was run: as §1
# [16] = target: GlcNAc6S(b1-3)Gal(b1-4)GlcNAc
# How it was run: as §1
# Kdn(a2-3)Gal(b1-3)GalNAc = target: Kdn(a2-3)Gal(b1-3)GalNAc
# How it was run: as §1
# Kdn(a2-3)Gal(b1-3)GlcNAc = target: Kdn(a2-3)Gal(b1-3)GlcNAc
# How it was run: as §1
# Kdn(a2-3)Gal(b1-4)Glc = target: Kdn(a2-3)Gal(b1-4)Glc
# How it was run: as §1
# Kdn(a2-3)Gal(b1-4)GlcNAc = target: Kdn(a2-3)Gal(b1-4)GlcNAc
# How it was run: as §1
# [17] = target: Kdn(a2-3)Gal(b1-4)[Fuc(a1-3)]GlcNAc
# How it was run: as §1
# Kdn(a2-6)Gal(b1-4)GlcNAc = target: Kdn(a2-6)Gal(b1-4)GlcNAc
# How it was run: as §1
# [18] = target: Man(a1-2)Man(a1-2)Man(a1-3)Man
# How it was run: as §1
# [19] = target: Man(a1-2)Man(a1-2)Man(a1-6)[Man(a1-3)]Man
# How it was run: as §1
# Man(a1-2)Man(a1-3)Man = target: Man(a1-2)Man(a1-3)Man
# How it was run: as §1
# [20] = target: Man(a1-2)Man(a1-3)[Man(a1-2)Man(a1-6)]Man
# How it was run: as §1
# [21] = target: Man(a1-2)Man(a1-3)[Man(a1-2)Man(a1-6)]Man(a1-6)[Man(a1-2)Man(a1-2)Man(a1-3)]Man
# How it was run: as §1
# [22] = target: Man(a1-2)Man(a1-3)[Man(a1-2)Man(a1-6)]Man(a1-6)[Man(a1-2)Man(a1-2)Man(a1-3)]Man(b1-4)GlcNAc(b1-4)GlcNAc
# How it was run: as §1
# [23] = target: Man(a1-2)Man(a1-3)[Man(a1-6)]Man(a1-6)[Man(a1-2)Man(a1-3)]Man(b1-4)GlcNAc(b1-4)GlcNAc
# How it was run: as §1
# [24] = target: Man(a1-2)Man(a1-6)[Man(a1-3)]Man(a1-6)[Man(a1-2)Man(a1-2)Man(a1-3)]Man
# How it was run: as §1
# [25] = target: Man(a1-2)Man(a1-6)[Man(a1-3)]Man(a1-6)[Man(a1-2)Man(a1-2)Man(a1-3)]Man(b1-4)GlcNAc(b1-4)GlcNAc
# How it was run: as §1
# Man(a1-3)[Man(a1-6)]Man = target: Man(a1-3)[Man(a1-6)]Man
# How it was run: as §1
# [26] = target: Man(a1-3)[Man(a1-6)]Man(a1-6)[Man(a1-2)Man(a1-3)]Man(b1-4)GlcNAc(b1-4)GlcNAc
# How it was run: as §1
binder,measurement,setting,value
B1,glycan array binding signal (z-score),[1],-0.957
same,glycan array binding signal (z-score),[2],-0.264
same,glycan array binding signal (z-score),[3],-0.52
same,glycan array binding signal (z-score),[4],-0.422
same,glycan array binding signal (z-score),[5],0.312
same,glycan array binding signal (z-score),[6],-0.108
same,glycan array binding signal (z-score),GlcNAc(b1-3)GalNAc,-0.454
same,glycan array binding signal (z-score),GlcNAc(b1-3)Man,-0.537
same,glycan array binding signal (z-score),[7],-0.26
same,glycan array binding signal (z-score),[8],-0.55
same,glycan array binding signal (z-score),[9],-0.65
same,glycan array binding signal (z-score),[10],0.012
same,glycan array binding signal (z-score),GlcNAc(b1-4)GlcNAc,-0.257
same,glycan array binding signal (z-score),[11],-0.106
same,glycan array binding signal (z-score),[12],-0.468
same,glycan array binding signal (z-score),[13],-0.531
same,glycan array binding signal (z-score),[14],-0.389
same,glycan array binding signal (z-score),[15],0.528
same,glycan array binding signal (z-score),GlcNAc(b1-6)GalNAc,0.29
same,glycan array binding signal (z-score),[16],0.061
same,glycan array binding signal (z-score),Kdn(a2-3)Gal(b1-3)GalNAc,0.233
same,glycan array binding signal (z-score),Kdn(a2-3)Gal(b1-3)GlcNAc,-0.161
same,glycan array binding signal (z-score),Kdn(a2-3)Gal(b1-4)Glc,-0.586
same,glycan array binding signal (z-score),Kdn(a2-3)Gal(b1-4)GlcNAc,0.863
same,glycan array binding signal (z-score),[17],-0.095
same,glycan array binding signal (z-score),Kdn(a2-6)Gal(b1-4)GlcNAc,0.821
same,glycan array binding signal (z-score),[18],-0.826
same,glycan array binding signal (z-score),[19],-0.537
same,glycan array binding signal (z-score),Man(a1-2)Man(a1-3)Man,0.369
same,glycan array binding signal (z-score),[20],-0.512
same,glycan array binding signal (z-score),[21],-0.685
same,glycan array binding signal (z-score),[22],0.436
same,glycan array binding signal (z-score),[23],-0.58
same,glycan array binding signal (z-score),[24],-0.652
same,glycan array binding signal (z-score),[25],-0.028
same,glycan array binding signal (z-score),Man(a1-3)[Man(a1-6)]Man,0.452
same,glycan array binding signal (z-score),[26],-0.318
